In a compilation of properties of binary mixtures (doi:10.1021/je060123k):
The densities may have been worked out from excess volumes.

Test: xn = mol fraction of the nth substance listed
Conditions: 101 kPa

CCCO + CCCCCCCCn1cc[n+](C)c1.[Cl-]
x1 = 1
Conditions | mass density [kg/m3]
298.15 K | 799.5
313.15 K | 787.3
328.15 K | 774.6

CCO + CCCCCCCCn1cc[n+](C)c1.[Cl-]
x1 = 1
Conditions | mass density [kg/m3]
298.15 K | 785.1
313.15 K | 772.1
328.15 K | 758.6

CO + CCCCCCCCn1cc[n+](C)c1.[Cl-]
x1 = 1
Conditions | mass density [kg/m3]
298.15 K | 786.6
328.15 K | 757.9

CCCCCCCCn1cc[n+](C)c1.[Cl-] + CCCO
mass density [kg/m3]
Conditions | 298.15 K | 313.15 K | 328.15 K
x2 = 0 | – | 1000.2 | –
x2 = 0.1071 | 1001.1 | 992.4 | –
x2 = 0.2407 | 989.7 | 980.9 | –
x2 = 0.3036 | 983.6 | 974.7 | –
x2 = 0.407 | 971.6 | – | 953.6
x2 = 0.4887 | 960.6 | 951.5 | 942.4
x2 = 0.6209 | 938.1 | 928.6 | –
x2 = 0.7248 | – | 904.9 | –
x2 = 0.8516 | 875.6 | 865.1 | 854.5
x2 = 0.9024 | – | 843.9 | 832.9
x2 = 0.94 | 836.5 | 825.2 | –
x2 = 0.9729 | 817.8 | 806.1 | –

CCCCCCCCn1cc[n+](C)c1.[Cl-] + CCO
mass density [kg/m3]
Conditions | x2 = 0 | x2 = 0.0449 | x2 = 0.1305 | x2 = 0.2969 | x2 = 0.4753 | x2 = 0.6858 | x2 = 0.8809 | x2 = 0.917 | x2 = 0.955 | x2 = 0.9794
298.15 K | 1008.8 | – | – | 988.5 | 969.8 | 933.5 | 868.6 | 849.1 | 824.1 | 804.6
313.15 K | 1000.2 | 997.6 | 992.2 | 979.6 | 960.8 | – | 857.7 | 837.7 | 812.1 | –
328.15 K | 991.7 | – | 983.6 | 971 | 951.7 | – | – | 826.2 | 799.9 | –

CCCCCCCCn1cc[n+](C)c1.[Cl-] + CO
mass density [kg/m3]
Conditions | 298.15 K | 313.15 K | 328.15 K
x1 = 0.0197 | – | 800.1 | 786.6
x2 = 0 | 1008.8 | 1000.2 | 991.7
x2 = 0.0565 | 1006.9 | 998.3 | 989.7
x2 = 0.1686 | 1002.4 | 993.7 | 985
x2 = 0.2638 | 997.7 | 988.9 | 980.2
x2 = 0.3525 | – | 983.2 | 974.5
x2 = 0.4395 | – | 976.5 | –
x2 = 0.5589 | – | – | 954.9
x2 = 0.7536 | 939.2 | 929.2 | 919.2
x2 = 0.8231 | 918.1 | – | –
x2 = 0.8713 | – | 886.3 | 875.3
x2 = 0.8813 | – | 881 | 869.8
x2 = 0.9236 | 866.3 | 854.4 | 842.5
x2 = 0.9436 | 850.4 | 838.2 | 825.8
